# Experimental data taken from the supplement of paper PMC11417369.
# Some of the results follow.
# Test system: PfHDP1 homeodomain (GST-tagged)
# Test: gcPBM binding intensity (ln(normalized median fluorescence intensity)); higher = stronger DNA binding
# Method in brief: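 GST-tagged P. falciparum DNA-binding domains produced in E. coli were incubated for 1 h on an Agilent 4 × 180k array of primer-extended double-stranded 36-bp intergenic genomic probes with negative controls. Binding intensity is the highest Masliner-normalised natural-log median intensity across replicate spots of either probe orientation, with bound protein detected by Alexa488 anti-GST antibody at 488 nm.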
row,Sequence,gcPBM binding intensity (ln)
1,AATATATATAATAATTGTACAATACGTATGTTATAT [XGTACX_site8745],7.15
2,TGTATACATAATATTTGTACATATTGTTATATATAT [XGTACX_site740],6.69
3,ATATATATATACATACGTACACACAAATATTAAAAT [XGTACX_site4007],8.64
4,TCCTATATCACAAATGTGCACAGAAAAAAAAAATAT,11
5,TTATAAAAAAAAAAAAAAAAGAAAATGAATTCACGA [CACACA_negctrl_site1248],5.74
6,ATTATCAAGACATTGCGTACTTAAAAAAAAAAAAAT [XGTACX_site6347],6.4
7,CATATATAATAATATTGTACATATATAATAATAATA [XGTACX_site3338],6.13
8,TTATTATTCATATATTCACACATTAAAATTTTTCAA [CACACA_site4243],6.62
9,ATTATATATACATATACACACATACGTACATACATA [CACACA_site9194],7.01
10,ATTTCATACAGACACACACACAAACAAACATATATA [CACACA_site979],7.15
11,GTGAAGGTTTATATGTGTACATATATGTATTATATA [XGTACX_site326],6.59
12,GACATTTCTTGGGATACATGCATGTCCCAGAACAAA [TGCATGCA_site271],6.21
13,TTTAATAAATTGTGTACACAAAACATATAAATTTCG [CACACA_site5644],7.21
14,TTTTTTTTTTTTAATGCACACAGTGAACTTTTACTT [CACACA_site3567],9.66
15,TTACAAATATTATAAAGTACAAACCAGTAGATTTTG [XGTACX_site2272],5.96
16,TCATTCTAAATATAAACACACATAAATATGTACATT [CACACA_site7555],6.6
17,TTTTTTTTTTTTAAAAGTACATAGTAGTAATTATAG [XGTACX_site4232],6.03
18,TATTTTTTTTTTTTTTTTTTTACCTTTCCACTCAAA [CACACA_negctrl_site1454],6.03
19,CATAAAAATGGATACACACACATAATATATATATAT [CACACA_site3619],8.79
20,TAATTTTTTTTTTATTGTACTTAATATTTTTAATTT [XGTACX_site5929],6.3
21,AAAAAAATTAATGTGTGTACTTAGATATAATGTTTA [XGTACX_site8862],6.43
22,TATATATATTAAAAACGTACAAAATAAGAATTAATT [XGTACX_site5979],6.8

row,Sequence,gcPBM binding intensity (ln)
1,GGATATATTTTATGTACACACACATATAAGGGATTA [CACACA_site4181],6.52
2,TCTAGGAAAAATTATAGTACACAAAAATATATATAT [XGTACX_site4136],7.95
3,ATATATACATATACTATATCTTTTATTTTTATTATT [GTGCAC_negctrl_site127],6.48
4,TTATATGCACTTTTTGCACACGTATGAATAACAAAA [CACACA_site1811],11.5
5,TATGACACTTTGAAGGGTACATGCAGAAAAAAAAAA [XGTACX_site569],6.67
6,AATTCAGCTTTACAACGTACACAATCATATGTCTAT [XGTACX_site8113],6.55
7,ATGAAGATTTAAAAATGTACATATGATCTATGTCCT [XGTACX_site8409],6.2
8,TAATACATAAATGATTGTACATAAGAATTGAAACAT [XGTACX_site4583],6.56
9,TATAAATAAATAAACACACACAAATAAAATAAAAAA [CACACA_site7623],6.98
10,TTTTTTTGCCATATTACACACACACCGGTAAACCCC [CACACA_site8475],7.16
11,ACATATTAGGGTCATGAACACACAAAAAAAAAAAAA [CACACA_site8218],6.34
12,TTTATTTATTTATTCTTATTTTTTTTTTTTTTTACT [CACACA_negctrl_site257],6.15
13,ATAAAAGAATTAAATAATCAAAATGATTATTTTATA [CACACA_negctrl_site466],5.63
14,CCAAAATTTATAAATTGTACATATTTTTAAATTCTT [XGTACX_site833],6.29
15,GATAAATAATAATAAGGTACACATAAAATATTCCTT [XGTACX_site2963],6.3
16,ATGTAGACAACATATGAACACACAAAATATTTTTTT [CACACA_site8955],6.57
17,TTAACAAAATTTTTAACACACAAAAAAAAAAAAAAA [CACACA_site1828],6.13
18,TAAGTAAACTTTCTATGTACATATTTTCAAATATTA [XGTACX_site6260],6.36
19,CTTATATATACATATACACACACACCCATATATATA [CACACA_site8705],7.12
20,GGTATAATTCATATAACACACATTTCAATGTTAAAA [CACACA_site2172],6.45
21,TGTATTAATTTGTAATGTACACATATATGTATTATA [XGTACX_site4152],6.68
22,TATAAAAATAGGATTTGTACATATAAAAAAGGAAAA [XGTACX_site8678],6.64
